# Test results reported in the supplement of paper PMC11417369.
# This is one part of the list.
# Tested on: PfAP2-HC AP2 domain (GST-tagged)
# Experiment: gcPBM binding intensity (ln(normalized median fluorescence intensity)); higher = stronger DNA binding
# Procedure, shortened: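 Binding of GST-tagged P. falciparum DNA-binding domains, expressed in E. coli and used at about 25 μg on average, was carried out for 1 h in 1× PBS containing 1% milk, 0.2 mg/ml BSA, 0.5% salmon testes DNA and 0.03% Triton X-100. The target was an Agilent 4 × 180k array of primer-extended double-stranded 36-bp intergenic genomic probes plus negative controls, read with Alexa488 anti-GST antibody at 488 nm. Binding intensity is the highest Masliner-normalised natural-log median intensity across replicate spots of either probe orientation.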
row,Sequence,gcPBM binding intensity (ln)
1,ATTGTGTTGACGGGTGACCCTTCCAGAGAAATAGAA [CACACA_negctrl_site1362],9.49
2,TTTTTTTTAATGAGAAGTACGGTCTTTCAATGTCTT [XGTACX_site6773],9.31
3,ATATAAATAAATATATGTACACACACAAATATATAC [XGTACX_site3950],10.2
4,TCTTTCTTATTTTAATGATATTTATTCATTCCAGTT [CACACA_negctrl_site1679],9.81
5,ACTTTTACACTTTGATTGCACTACTAAACCAGTTCA,9.79
6,AGAATTATTCTAAAAACACACAATACAAAAGTGCAT [CACACA_site3004],9.73
7,ATAAAAAAAAATATTTGTACACATATTTATATATTA [XGTACX_site8147],9.6
8,AAAAAACACGCGCACACACACACACGCGCCCACATA [CACACA_site7106],11.1
9,AATACTAAAACCCATACACACACATATATATAGTAC [CACACA_site9041],11
10,TCTTTCAATATTAATGCATGTTAATAATAAATTTTA [TGCATGCA_site448],9.4
11,ATATGTTTTTTTTTTTTTTTTTAATTTGTCATAAAT [CACACA_negctrl_site1208],9.55
12,TGAACAATATATAATAGTACATATTTATTTTTTTCT [XGTACX_site4256],9.5
13,TAAAGATGAAATATCACACATATATAAATATATAAA [CACACA_site4580],9.68
14,AATTAAATTACTTATACACACATAAAATGGGTGTAT [CACACA_site4703],9.74
15,AAAAAAAAAAAAAAGCGTACAAATAAAATATATTTA [XGTACX_site7195],9.48
16,CGTATATATAAATACACACACATATATATCTGTAAA [CACACA_site4272],9.98
17,TTAATTTATTTATGCACACATATATAATTACCCATA [CACACA_site682],9.78
18,TTTTTATATGCGTATTGTACATTATACATATATATA [XGTACX_site6786],9.66
19,TAAATGTCCTTATTTGCACACACACCCATAAGAAAT [CACACA_site3185],10.8

row,Sequence,gcPBM binding intensity (ln)
1,CCTTTTTTGTTTTATGCACACCATATAACCAAGGCT [CACACA_site7893],9.88
2,TATATATAAAAATATACACACACAAATGTATATATA [CACACA_site7956],10.2
3,ATGTAATGAAACATTGCACACATATAATAATATAAT [CACACA_site8402],10.2
4,ATGATGTGCAAGAGTAGTACACAATTTTGGGTTTAT [XGTACX_site501],9.73
5,AAACATAAGAAACACACACACATATATATATATATA [CACACA_site3642],10.4
6,AAAAAAAAATCAAAATGTACTTATTTTTATAATAAT [XGTACX_site4712],9.5
7,AACATCAATTTATTTTCTTACATTATACGATTCATG [CACACA_negctrl_site1300],9.55
8,AGAATATCAAAATAAAGTACATTTATTATATATATG [XGTACX_site7100],9.56
9,TTTTCTCTCAAAAAATGTACATAATATATATATTTT [XGTACX_site4861],9.69
10,AAAAAAAAAAAACATACACACATACATACCTATATA [CACACA_site6575],10.3
11,ATTCTTATAACAAGAAGTACAAATATATGTATATAT [XGTACX_site4528],9.5
12,TTTTTTTTTTTTTAAACATGCATAATAAATATAATA [TGCATGCA_site265],9.28
13,TTTTTTATTTTGTGCACACACATAAAAATATATATA [CACACA_site761],9.86
14,TTGTTTTCTTATTATTACTACAATACTTAAGTCAGA [TGCATGCA_negctrl_site184],9.5
15,TAATCATAACTTGATACGCACACGTTATATAAATAA [CACACA_site1579],9.61
16,TATTTATTTATGGACACACATACAAATCTTCCAGAC [CACACA_site942],9.96
17,TTTTGTTGGATACAAAAATTACAAATTATTTAAAAA [TGCATGCA_negctrl_site532],9.3
18,TTTTTTATTTTAAAAACATGCATAAAATATAATAGT [TGCATGCA_site762],9.34
19,AGATAAAAAAAGTACACACACACATATATTTATATA [CACACA_site7437],10.9

row,Sequence,gcPBM binding intensity (ln)
1,TATATATTTAATTTCACACATATATATAATTATTAT [CACACA_site4936],9.71
2,ATACACACTTAAAAAAGTACTTAACTACATGAATTG [XGTACX_site1203],9.78
3,ATATTATATATAAAATGTACATTTAAAAATATTATA [XGTACX_site889],9.67
4,TATCATAAAAAATATACACACAAAGGATATTTATAT [CACACA_site6841],9.79
5,TATGAACACCAACACACACACAAAAAAAAAAAAAAA [CACACA_site2013],10.2
6,GAATACATAATAACATGTACACACATTCTTCTATAA [XGTACX_site8725],9.82
7,TATATATATAGAAATGCATGTTAATAAAAGTTATAA [TGCATGCA_site947],9.85
8,TACGTAAAATAATTGAGTACATAATTATATATATAT [XGTACX_site5361],9.6
9,AAAAATAATCATTAGGTGCAAAAAATATATATATAT [GTGCAC_site9631],10
10,TTTTTTTTTTTAAATTCACACAATATATAAATATTG [CACACA_site5201],9.5
11,AACAAATATATATGTAGTACATGTTGTAGATAATTT [XGTACX_site24],10.1
12,AGAAAAATTATTTTGCGTACATATTTACAATAAAAA [XGTACX_site2144],9.41
13,GTACATTATTTATATACACACAAAGAAAAATATACA [CACACA_site3452],9.93
14,TTTAAAATATATAGTACACACGTGAACACAAATACA [CACACA_site4392],9.82
15,TAAAGCATATTATAAACACACACTGTATAAAGATAT [CACACA_site296],10
16,AAAAAAAATATAATATGTACATATCTATATATCAAC [XGTACX_site4881],9.79
17,TATACATATGAAAATACACACATACATACAGATATA [CACACA_site5002],10.3
18,TTGTTTTTAATATCGGTGCAATGGAAAGAAAAGAAG [GTGCAC_site9494],9.5
